Source: the RNAGym collection of RNA variant scans (doi:10.1093/nar/gkz1192)
Read counts are not given, so values of variants with three or more changes are uncertain.

B1: CPEB3 Ribozyme (parent)
chain: UAACAGGGGGCCACAGCAGAAGCGUUCACGUCGCAGCCCCUGUCAGAUUCUGGUGAAUCUGCGAAUUCUGCUGUAUAUCUC

Variants of: B1
Assay: self-cleavage, relative activity (ratio to wild type); higher = more cleavage; in vitro, sequencing
Procedure, shortened: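 CPEB3 self-cleaving ribozyme mutant libraries were made by rounds of error-prone PCR, barcoded, and transcribed in vitro with T7 RNA polymerase for 5 hours at 37°C. Cleavage occurred during transcription and a 15 min DNase I step before EDTA stop. RNAs were reverse transcribed with template switching and Illumina-sequenced, with DNA sequencing mapping barcodes to variants. Relative activity is the variant's cleaved/total read fraction divided by wild type's (minimum 5 reads), averaged across three batches.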

Variant	self-cleavage
A2G C34G U58A	0.2
A2G C38U C62U	0.1
A2G C39G A77G	0.43
A2G G6A C11U C17G U54C A57G U67A	0.04
A2G G6A C17U A21G U25C A47G U67G	0.17
A2G G6A G24A	0.27
A2G G6A U31A A65G	0.31
A2G G6A U41C	0.13
A2G G6C C12U C71G C81U	0.12
A2G G6U A15G	0.63
A2G G7A A28U A47G U69A C79U	0.06
A2G G7A A35G A45G U54C A57G U69A	0.04
A2G G7A U41C U48C	0.09
A2G G7A U49G U60A A65U	0.06
A2G G7A U80C	0.48
A2G G7U A65U	0.44
A2G G7U G19A C23U A56U	0.04
A2G G7U U48A U49C A57G A64U U76A	0.02
A2G G8A U31C A45G U51C U67A	0.19
A2G G8U U54G	0.19
A2G G9A A21U U41C U78C	0.08

Variant	self-cleavage
A2G G9A U58C A65U U72A U78C	0.12
A2G G9A U74C	0.39
A2G G9U U66C	0.26
A2G G10A A15C U25C A35G U43C	0.33
A2G G10A A18G U43G	0.25
A2G G10C C81U	0.06
A2G G10U U25C U58C U80C	0.07
A2G G16A C23A U25C U43C	0.19
A2G G16A C40G U69A U76C	0.08
A2G G16U G36C U43G U51C A75U	0.1
A2G G16U U41C U48C	0.07
A2G G19A U26C G42A	0.25
A2G G22A C32U A45G A64G U72C U80C	0.16
A2G G24A A28G U41A A45G U72A	0.07
A2G G30A A35G U69A	0.19
A2G G30A A35U U58G U80A	0.05
A2G G30C A57G	0.11
A2G G33A A35G	0.07
A2G G33A U41A C71U U74A	0.08
A2G G33A U43C	0.47
A2G G33A U43C A47G	0.09

Variant	self-cleavage
A2G G42A U58G	0
A2G G52A A65G U69A U72C	0.15
A2G G52A A77U	0.77
A2G G55A U58G	0.1
A2G U25C A28U U31C U51A U54A C62U	0.18
A2G U25C A35G A45G U49A U67C U69C	0
A2G U25C A45G A77G U80C	0.07
A2G U25C U31C U72C	0.3
A2G U25C U41C U54A U78C	0.4
A2G U25C U51A A77G	0.25
A2G U25C U66C	0.32
A2G U26A U54C	0.71
A2G U26C A35G	0.92
A2G U26C A35U A45U U69C	0.12
A2G U26C A64G U67C	0.08
A2G U26C G30A A57G	0.31
A2G U26C U72A	0.14
A2G U26C U74C U80C	0.88
A2G U31A U72A	0.35
A2G U31C A35G C38U	0.71
A2G U41A U43C U60C U69C A77G	0.06

Variant	self-cleavage
A2G U41A U54G	0.1
A2G U41C U72G U76A	0.28
A2G U43A G52A A64G C71U	0.19
A2G U43C G52C A57G U76C	0.23
A2G U43C G61A U72A	0.14
A2G U43C U72C G73U	0.48
A2G U48C U66C U72C	0.08
A2G U48G U67C U74C U78C	0.07
A2G U49C U54G A56G A65G U72C	0.07
A2G U51C A65G	0.07
A2G U51C U54A U58A	0.36
A2G U58C U60G	0.32
A2G U60C A75U	0.08
A2G U67C U69C U78A	0.24
A2G U72A A75G	0.42
A2G U72C A77G	0.63
A2U A3G A13G U54G	0.62
A2U A3G G8A U67C	0.06
A2U A3G U26C C50A A56U C68A U69G	0.19
A2U A5G A18G U25C C40U U51A U60C	0.5
